Key:
[1] = test system: Electrical Current Threshold (ECT) test in male Wistar rats; assay: Electrical current threshold (ECT) test
[2] = test system: streptozotocin-induced diabetic neuropathy in male Wistar rats; assay: Streptozotocin-induced diabetic neuropathy, paw pressure test; details: for pre-drug mean paw withdrawal threshold: times -20, -10 and 0; for post-drug mean paw withdrawal threshold: +20, +30 and +40 min, saline 30.94
[3] = test system: carrageenan-induced hyperalgesia in male Wistar rats; assay: Carrageenan paw inflammation and paw flick test of nociception; details: for Post-treatment mean paw withdrawal latency: 140, 150 and 160 minute readings, saline controls 6.22

CCOC(=O)Nc1ccc(NCc2ccc(F)cc2)nc1N [flupirtine]
standardized ECT value (ratio to pre-drug mean), mean ([1]; flupirtine 5 mg/kg ip, post (10-30 minutes), saline post 1.27): 1.54
standardized ECT value (ratio to pre-drug mean), mean ([1]; flupirtine 5 mg/kg ip, pre): 1.00
standardized ECT value (ratio to pre-drug mean), mean ([1]; flupirtine 10 mg/kg ip, post, saline post 1.27): 1.92
standardized ECT value (ratio to pre-drug mean), mean ([1]; flupirtine 10 mg/kg ip, pre): 1.00
pre-drug mean paw withdrawal threshold ([2]; flupirtine 5 mg/kg alone group, non diabetic controls 44.7): 28.25 grams
post-drug mean paw withdrawal threshold ([2]; flupirtine 5 mg/kg alone ip, non diabetic controls 44.7): 31.90 grams
pre-drug mean paw withdrawal threshold ([2]; flupirtine 10 mg/kg alone group): 27.89 grams
post-drug mean paw withdrawal threshold ([2]; flupirtine 10 mg/kg alone ip, non diabetic controls 44.7): 41.00 grams
Pre-treatment mean paw withdrawal latency ([3]; flupirtine 5 mg/kg ip alone group, readings -20, -10 and 0 before carrageenan and drug): 10.90 s
Post-treatment mean paw withdrawal latency ([3]; flupirtine 5 mg/kg ip alone): 5.82 s
Pre-treatment mean paw withdrawal latency ([3]; flupirtine 10 mg/kg alone group, readings -20, -10 and 0): 10.97 s
Post-treatment mean paw withdrawal latency ([3]; flupirtine 10 mg/kg alone): 5.51 s
effect on carrageenan-induced hyperalgesia ([3]; flupirtine 5 and 10 mg/kg alone): no effect

CN1CC[C@]23c4c5ccc(O)c4O[C@H]2[C@@H](O)C=C[C@H]3[C@H]1C5 [morphine]
standardized ECT value (ratio to pre-drug mean), mean ([1]; morphine 0.4 mg/kg ip, post, saline post 1.27): 1.46
standardized ECT value (ratio to pre-drug mean), mean ([1]; morphine 0.4 mg/kg ip, pre): 1.00
antinociception in ECT test ([1]; morphine 0.4 mg/kg, p<0.001 vs saline): significant antinociception
pre-drug mean paw withdrawal threshold ([2]; morphine 1.6 mg/kg alone group): 28.10 grams
post-drug mean paw withdrawal threshold ([2]; morphine 1.6 mg/kg alone ip, non diabetic controls 44.7): 31.90 grams
reversal of diabetes-induced hyperalgesia ([2]; morphine 1.6 mg/kg alone, p>0.05 vs before drug): no significant reversal
pre-drug mean paw withdrawal threshold ([2]; morphine 3.2 mg/kg alone group): 26.67 grams
post-drug mean paw withdrawal threshold ([2]; morphine 3.2 mg/kg alone ip, non diabetic controls 44.7): 35.00 grams
antinociception in diabetic neuropathy ([2]; morphine 3.2 mg/kg given alone, p<0.05, less than morphine 1.6 mg/kg with flupirtine 10 mg/kg (p<0.001)): significant antinociception
Pre-treatment mean paw withdrawal latency ([3]; morphine 0.4 mg/kg ip alone group, readings -20, -10 and 0): 12.10 s
Post-treatment mean paw withdrawal latency ([3]; morphine 0.4 mg/kg ip alone): 5.76 s
Pre-treatment mean paw withdrawal latency ([3]; morphine 0.8 mg/kg alone group, readings -20, -10 and 0): 10.02 s
Post-treatment mean paw withdrawal latency ([3]; morphine 0.8 mg/kg alone): 4.88 s
Pre-treatment mean paw withdrawal latency ([3]; morphine 1.6 mg/kg alone group, readings -20, -10 and 0): 10.30 s
Post-treatment mean paw withdrawal latency ([3]; morphine 1.6 mg/kg alone): 8.88 s
effect on carrageenan-induced hyperalgesia ([3]; morphine 0.4 and 0.8 mg/kg alone): no effect

Source: patent US8268821B2, “Methods and compositions” (priority 2003, dated 2012)
